{
  "source": "paper PMC8954037",
  "biological_target": "Grp94/gp96 (endoplasmic reticulum chaperone), endogenous in human cell lines (human (endogenous in HeLa, MDA-MB-231, HS578T)), P14625",
  "test": "co-IP; anti-Grp94 3c4 on HeLa lysate in RIPA buffer after cross-linking of the culture with DSP (200 ug/mL, 5 min, room temperature); linker cleaved before SDS-PAGE",
  "conditions": "remark: other sources report otherwise",
  "note": "These are yes or no findings as the source states them, for the method shown. In cells and extracts the contact can be indirect.",
  "data": [
    {"binder": "calreticulin, endogenous in HeLa cells, P27797 18-417 (protein) EPAVYFKEQFLDGDGWTSRWIESKHKSDFGKFVLSSGKFYGDEEKDKGLQTSQDARFYALSASFEPFSNKGQTLVVQFTVKHEQNIDCGGGYVKLFPNSLDQTDMHGDSEYNIMFGPDICGPGTKKVHVIFNYKGKNVLINKDIRCKDDEFTHLYTLIVRPDNTYEVKIDNSQVESGSLEDDWDFLPPKKIKDPDASKPEDWDERAKIDDPTDSKPEDWDKPEHIPDPDAKKPEDWDEEMDGEWEPPVIQNPEYKGEWKPRQIDNPDYKGTWIHPEIDNPEYSPDPSIYAYDNFGVLGLDLWQVKSGTIFDNFLITNDEAYAEEFGNETWGVTKAAEKQMKDKQDEEQRLKEEEEDKKRKEEEEAEDKEDDEDKDEDEEDEEDKEEDEEEDVPGQAKDEL", "values": [
      {"measurement": "binding", "result": "no binding"}
    ]}
  ]
}
